# Measurements published in article PMC4336329 (PLoS ONE, 2015).
# Hit rate of the full screen: of about 310,000 compounds, about 2,200 (0.71%) showed an effect of 50% or more. The effect is printed as a negative number. The list shows a part of the results.
# Biological target: human ether-à-go-go-related gene (hERG) potassium channel (human, UniProt Q12809)
# Experiment: primary screen, population patch clamp on CHO cells stably expressing hERG
# Chain of human ether-à-go-go-related gene (hERG) potassium channel (Q12809 whole entry, looked up): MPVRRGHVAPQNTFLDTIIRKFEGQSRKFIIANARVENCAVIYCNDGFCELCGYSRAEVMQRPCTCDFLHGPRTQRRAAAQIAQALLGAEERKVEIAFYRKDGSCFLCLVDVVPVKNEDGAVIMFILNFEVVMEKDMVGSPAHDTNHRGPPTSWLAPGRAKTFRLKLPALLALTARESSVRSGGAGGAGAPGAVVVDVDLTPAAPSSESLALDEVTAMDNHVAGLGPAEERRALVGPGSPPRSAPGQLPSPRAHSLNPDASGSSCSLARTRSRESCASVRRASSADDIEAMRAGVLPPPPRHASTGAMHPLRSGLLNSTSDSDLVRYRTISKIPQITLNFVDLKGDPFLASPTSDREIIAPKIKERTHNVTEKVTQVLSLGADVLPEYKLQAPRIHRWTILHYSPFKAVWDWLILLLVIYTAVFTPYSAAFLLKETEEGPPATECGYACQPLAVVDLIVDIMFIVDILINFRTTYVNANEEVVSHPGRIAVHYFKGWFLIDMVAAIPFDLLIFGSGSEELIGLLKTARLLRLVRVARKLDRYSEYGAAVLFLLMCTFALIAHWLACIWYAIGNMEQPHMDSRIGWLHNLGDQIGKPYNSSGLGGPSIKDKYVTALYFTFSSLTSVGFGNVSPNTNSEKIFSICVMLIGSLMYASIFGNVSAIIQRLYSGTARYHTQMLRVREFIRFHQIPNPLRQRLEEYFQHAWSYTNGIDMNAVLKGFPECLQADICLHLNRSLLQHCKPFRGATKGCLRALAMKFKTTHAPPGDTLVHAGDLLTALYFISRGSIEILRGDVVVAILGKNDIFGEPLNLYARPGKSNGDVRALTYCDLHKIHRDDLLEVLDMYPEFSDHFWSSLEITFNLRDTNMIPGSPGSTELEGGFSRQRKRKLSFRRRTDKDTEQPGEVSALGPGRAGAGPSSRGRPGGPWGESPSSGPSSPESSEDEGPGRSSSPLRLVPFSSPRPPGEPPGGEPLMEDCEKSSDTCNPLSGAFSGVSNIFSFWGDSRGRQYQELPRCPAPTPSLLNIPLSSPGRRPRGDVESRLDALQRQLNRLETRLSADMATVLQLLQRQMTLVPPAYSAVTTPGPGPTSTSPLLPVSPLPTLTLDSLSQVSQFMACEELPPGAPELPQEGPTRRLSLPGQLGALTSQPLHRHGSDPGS
row,Structure (SMILES),"hERG current change (%, negative = inhibition) at 1uM [%]"
1,O=C(CN1C(=O)NC2(CCCC2)C1=O)Nc1cc(Cl)ccc1Oc1ccccc1,9.36
2,Fc1ccccc1Cn1cnc(NC(=S)NCCc2ccccc2)n1,8.35
3,CCOc1ccc(N(CC(=O)Nc2ccccc2C(=O)NCc2ccco2)S(C)(=O)=O)cc1,-2.78
4,CCCOc1ccccc1Cn1c(=O)oc2ccc(C)cc21,17.3
5,CCC(Oc1cc(Cl)ccc1Cl)C(=O)NNC(=O)CCC(=O)O (centres unmarked),23.8
6,O=C(CSc1nc2ccccc2[nH]1)NCCCn1ccnc1,13.3
7,COc1ccccc1NC(=O)CCCC(=O)OC(C)C(=O)c1ccccc1 (centres unmarked),-8.43
8,COc1ccc(C(C(=O)NC2CCCCC2)N(CC2CCCO2)C(=O)CNC(=O)c2ccco2)cc1 (centres unmarked),-0.0855
9,CCCc1nn(C)c2c(=O)[nH]c(-c3cc(S(N)(=O)=O)ccc3OCC)nc12,8.68
10,COc1ccc(CCNC(=O)CN(Cc2ccc(Cl)cc2)S(C)(=O)=O)cc1,6.27
11,Cl.N=c1ccn(Cc2ccc([N+](=O)[O-])cc2)cc1,11.2
12,Cc1ccc(C(=O)C2CCN(CC(=O)Nc3ccc4c(c3)OCCO4)CC2)cc1,7.66
13,Cc1nnc(SCC(=O)Nc2cc(C(C)(C)C)nn2-c2ccccc2)s1,1.77
14,Cc1ccc(C)c(OCCC(=O)NNC(=O)c2ccncc2)c1,27.2
15,CN(C)CCCNC(=O)c1ccc(CN(c2ccccc2)S(C)(=O)=O)cc1,8.21
16,Cc1cccc(NC(=O)CSc2nc3ccccc3nc2N2CCCCC2)c1,-6.47
17,COC(=O)CSc1nc(-c2cccs2)ccc1C#N,9.92
18,OCC(Br)CBr (centres unmarked),12.7
19,O=C(NCCc1ccccc1)C1CC(=O)N(c2ccc3c(c2)OCCO3)C1 (centres unmarked),7.34
20,CN(C)S(=O)(=O)c1ccc(Oc2ccc(S(=O)(=O)N(C)C)cc2)cc1,4.07
21,COc1cccc(-c2cc(C(F)(F)F)nc(-n3cccn3)n2)c1,9.35
22,Cc1ncc(CSc2ccc(Cl)cc2)c(CO)c1O,12.9
23,COc1cc(/C=C2\CCOC2=O)cc(OC)c1OC,10.7

row,Structure (SMILES),"hERG current change (%, negative = inhibition) at 1uM [%]"
1,COc1ccc(S(=O)(=O)N2CCC(c3nc4ccccc4[nH]3)CC2)cc1,12.9
2,CC[C@@]12C(=O)N(c3ccccc3)C(=O)N1[C@H](c1ccc(Br)cc1)[C@@H]1C(=O)N(C(C)(C)C)C(=O)[C@@H]12,6.66
3,O=C(Cc1cccs1)Nc1nnc(Cc2ccccc2)s1,3.96
4,CSCC(=O)Nc1nc(-c2ccc3c(c2)OCCO3)cs1,-9.23
5,CCOC(=O)C1CCN(C(=O)C2CCN(S(=O)(=O)c3cc(Cl)ccc3Cl)CC2)CC1,-3.15
6,Cc1ccccc1C(=O)NC(=S)NC1CC1,17.5
7,CCOC(=O)C1(CCOC)CCN(C(=O)c2ccccc2-c2cccc(C)c2)CC1,14
8,CCOC(=O)CNC(=O)c1cc(-c2ccccn2)nc2c(C)c(Cl)ccc12,7.56
9,O=C(CSCC(=O)Nc1nc(-c2ccc3c(c2)OCO3)cs1)Nc1nccs1,14.1
10,C/C(=N\Nc1ccc(S(=O)(=O)N2CCOCC2)cc1[N+](=O)[O-])C(C)C,12.7
11,COc1ccc(C(=O)Nc2nc3cc4c(cc3s2)OCCO4)c(OC)c1,6.91
12,COc1ccccc1NC(=O)Cc1noc(CSc2nnc(C(F)(F)F)n2C)n1,8.37
13,CCOC(=O)N1CCC(NC(=O)c2cc(-c3ccc(OC)cc3)nc3ccccc23)CC1,13.1
14,Cc1nnc(N(C)C(=O)c2ccccn2)s1,13.8
15,Fc1ccccc1Nc1ncnc2c1nnn2Cc1ccccc1,8.46
16,Nc1nnc(CCCCCc2nnc(N)s2)s1,12
17,COc1cc(CCC(C)NCc2ccccc2)ccc1O (centres unmarked),0.614
18,Cc1cc(CN2CCOCC2)c(O)c(C2(C)CCCCC2)c1,9.4
19,CC(=O)/C(=C/c1ccc(N(C)C)cc1)C(=O)c1ccccc1,14.6
20,CCCCN(C)C1CCN(C(=S)Nc2cccc(OC)c2)CC1,0.288
21,CCCn1c(C)cc(/C=C(\C#N)C(=O)O)c1C,9.47
22,CC(C)NC(=O)C(=O)NNC(=O)C12CC3CC(CC(C3)C1)C2,10.7
23,CC(NC(=O)c1ccc(S(=O)(=O)N(C)C)cc1)c1ccccc1 (centres unmarked),10.1

row,Structure (SMILES),"hERG current change (%, negative = inhibition) at 1uM [%]"
1,Cc1ccc(S(=O)(=O)N(C)C)cc1NC(=O)COC(=O)/C=C/c1ccc2c(c1)OCO2,5.79
2,N#CCC(=O)N/N=C/c1cn(Cc2ccc(Cl)c(Cl)c2)c2ccccc12,8.68
3,COC(=O)Nc1ccc(Oc2ccccc2)cc1,3.4
4,CCn1nnnc1SCC(=O)N1CCCCC1,4.24
5,COC(=O)CNC(=O)c1ccccc1F,16.1
6,CC(C(=O)N1CCN=C1c1ccccc1)N1C(=O)c2ccccc2C1=O (centres unmarked),22.7
7,CCOC(=O)CSc1nnc(-c2ccco2)n1-c1ccccc1,6.93
8,CC(C)n1c(SCC(=O)NC2CCCCC2)nnc1-c1ccco1,9.33
9,FC(F)Oc1ccccc1/C=N/Nc1nc2ccccc2o1,16.8
10,CC1(NC(=O)Nc2ccccc2)CCS(=O)(=O)C1 (centres unmarked),-8.69
11,CC(=O)NC(Cc1ccccc1F)C(=O)NC1CCN(C(=O)Nc2ccc(C)cc2)CC1 (centres unmarked),-0.535
12,N#CCCC1CCCC=C1N(Cc1ccccc1)C(=O)C(Cl)Cl (centres unmarked),3.3
13,CCCCn1c(CNC(=O)Cc2ccccc2)nc2ccccc21,19
14,COc1ccc(C(=O)Nn2c(C)nc3ccccc3c2=O)cc1[N+](=O)[O-],8.27
15,COCC(=O)N(Cc1cc2cc(C)ccc2[nH]c1=O)c1ccc(C)c(C)c1,16.4
16,COC(=O)c1ccc2nc(-c3cccc(N)c3)cn2c1,2.83
17,CN(C)C=NC(=O)c1cc(C(=O)c2ccc(F)cc2)c[nH]1,-5.67
18,CCCCC(C)n1[nH]c(=O)cc1N (centres unmarked),8.59
19,O=C(NC1CCCCC1)C(c1ccccc1F)N(Cc1ccco1)C(=O)Cn1nnc2ccccc21 (centres unmarked),-4.97
20,COC(=O)c1ccc(CNC(=O)C2CCC(=O)N(CCc3ccccc3)C2)cc1 (centres unmarked),2.67
21,Cc1ccc(NC(=O)c2ccc(=O)[nH]n2)cc1C,3.53
22,CCN(CC)S(=O)(=O)c1ccc2c(c1)nc(-c1ccccn1)n2C,12
23,O=S(=O)(O)c1ccc(N=Nc2ccccc2)cc1,16.3

row,Structure (SMILES),"hERG current change (%, negative = inhibition) at 1uM [%]"
1,CCN(CC)S(=O)(=O)c1cc(NC(=O)C2Cc3ccccc3C(=O)O2)ccc1C (centres unmarked),-8.76
2,O=C(C(F)C(F)(F)F)N1CCN(c2ccccc2)CC1 (centres unmarked),12
3,CCNC(=S)Nc1scc(-c2ccccc2)c1C(=O)OCC,16.5
4,COCCNC(=O)C(c1ccc(O)cc1)N(Cc1ccccc1)C(=O)CCC(=O)Nc1nccs1 (centres unmarked),13.2
5,O=C(c1cc(COc2cccc(C(F)(F)F)c2)on1)N1C[C@@H]2CCC[C@H]1C2,8.27
6,CCCCOC(=O)CCn1[nH]c(=O)c2ccccc2c1=O,4.23
7,Cc1occc1C(=O)Nc1cccc(Cn2cccn2)c1,-8.34
8,COc1ccc(OCCC(=O)OCc2c(C)noc2C)cc1,8.57
9,O=S(=O)(Nc1cccc(Oc2cnccn2)c1)c1ccc(F)cc1,15.9
10,CNC(=O)CN(c1cccc2ccccc12)S(C)(=O)=O,8.6
11,CCn1nc(C)c(CNC(=O)c2ccc(OC3CCN(Cc4ccccn4)CC3)cc2)c1C,9.24
12,COc1ccc(-c2coc3c(CN4CCCCC4C)c(O)ccc3c2=O)cc1 (centres unmarked),7.15
13,COc1ccccc1NC(=O)COC(=O)CCc1ccc(S(=O)(=O)N2CCOCC2)cc1,4.94
14,S=C(Nc1ccc(Cl)c(Cl)c1)NC1CCN(Cc2ccccc2)CC1,-0.625
15,C=CCNC(=O)CN1C(=O)C2C3c4ccccc4C(c4ccccc43)C2C1=O (centres unmarked),20.2
16,O=c1[nH]c(=S)[nH]c(O)c1N=Nc1cc(S(=O)(=O)Nc2ccc(Cl)cc2)ccc1Cl,11.2
17,Cc1nnnn1/C(=C\c1ccccc1)C(=O)OCC(=O)Nc1ccc(Cl)cc1F,16.9
18,CCCCn1c(=O)c(C(=O)NCc2ccccc2)c(O)c2ccccc21,12.9
19,COCc1cc(=O)[nH]c(/N=C(\N)Nc2ccc(Oc3ccccc3)cc2)n1,5.37
20,CCCn1nnc2ccccc2c1=O,0.0784
21,Cc1ccc(C(=O)NNC(=O)C2CCN(S(=O)(=O)c3ccc(C)cc3)CC2)cc1,0.756
22,O=C1NC(=O)C2C3c4ccccc4C(c4ccccc43)C12 (centres unmarked),8.92
23,O=C(N/N=C/c1cccc([N+](=O)[O-])c1O)C(O)(c1ccccc1)c1ccccc1,18.6
